# Test results published in the supplement of paper PMC8728848.
# The list shows a part of the results.
# B1: Eap (Staphylococcus aureus), A0A7L5PYT7 (protein)
# chain: MKFKSLITTTLALGVLASTGANFNNNEAAAAAKPLDKSSSSLHHGYSKVHVPYAITVNGTSQNILSSLTFNKNQNISYKDLEDRVKSVLKSDRGISDIDLRLSKQAKYTVYFKNGTKKVIDLKAGIYTADLINTSEIKAININVDTKKQVEDKKKDKANYQVPYTITVNGTSQNILSNLTFNKNQNISYKDLEDKVKSVLESNRGITDVDLRLSKQAKYTVNFKNGTKKVIDLKSGIYTANLINSSDIKSININVDTKKHIENKAKRNYQVPYSINLNGTSTNILSNLSFSNKPWTNYKNLTSQIKSVLKHDRGISEQDLKYAKKAYYTVYFKNGGKRILQLNSKNYTANLVHAKDVKRIEITVKTGTKAKADRYVPYTIAVNGTSTPILSDLKFTGDPRVGYKDISKKVKSVLKHDRGIGERELKYAKKATYTVHFKNGTKKVININSNISQLNLLYVQDIKKIDIDVKTGTKAKADSYVPYTIAVNGTSTPILSKLKISNKQLISYKYLNDKVKSVLKSERGISDLDLKFAKQAKYTVYFKNGKKQVVNLKSDIFTPNLFSAKDIKKIDIDVKQYTKSKKNK
# Assays:
# Experiment in all cases: glycan array binding signal (z-score within array); higher = stronger binding
# Details in all cases: glycan notation: IUPAC condensed, linker removed
# [1] = target: Gal(b1-3)[Fuc(a1-4)]GlcNAc
# How it was run: (§1)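 From the Consortium for Functional Glycomics database, 3228 arrays were curated, keeping only those whose protein sequence was available. Binding is given as a within-array Z-score averaged across arrays sharing a protein sequence and across linkers. Negative Z-scores can be read as non-binding.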
# [2] = target: Gal(b1-3)[Fuc(a1-4)]GlcNAc(b1-2)Man(a1-3)[Gal(b1-3)[Fuc(a1-4)]GlcNAc(b1-2)Man(a1-6)]Man(b1-4)GlcNAc(b1-4)GlcNAc
# How it was run: as §1
# [3] = target: Gal(b1-3)[Fuc(a1-4)]GlcNAc(b1-2)Man(a1-3)[Gal(b1-3)[Fuc(a1-4)]GlcNAc(b1-2)Man(a1-6)]Man(b1-4)GlcNAc(b1-4)[Fuc(a1-6)]GlcNAc
# How it was run: as §1
# [4] = target: Gal(b1-3)[Fuc(a1-4)]GlcNAc(b1-3)Gal(b1-3)[Fuc(a1-4)]GlcNAc
# How it was run: as §1
# [5] = target: Gal(b1-3)[Fuc(a1-4)]GlcNAc(b1-3)Gal(b1-4)GlcNAc
# How it was run: as §1
# [6] = target: Gal(b1-3)[Fuc(a1-4)]GlcNAc(b1-3)Gal(b1-4)[Fuc(a1-3)]GlcNAc
# How it was run: as §1
# [7] = target: Gal(b1-3)[GlcNAc(b1-6)]GalNAc
# How it was run: as §1
# [8] = target: Gal(b1-3)[Neu5Ac(a2-6)]GalNAc
# How it was run: as §1
# [9] = target: Gal(b1-3)[Neu5Ac(a2-6)]GlcNAc(b1-6)Gal(b1-4)Glc
# How it was run: as §1
# [10] = target: Gal(b1-3)[Neu5Ac(b2-6)]GalNAc
# How it was run: as §1
# [11] = target: Gal(b1-4)GalNAc(a1-3)[Fuc(a1-2)]Gal(b1-4)GlcNAc
# How it was run: as §1
# [12] = target: Gal(b1-4)GalNAc(b1-3)[Fuc(a1-2)]Gal(b1-4)GlcNAc
# How it was run: as §1
# Gal(b1-4)Glc = target: Gal(b1-4)Glc
# How it was run: as §1
# Gal(b1-4)Glc6S = target: Gal(b1-4)Glc6S
# How it was run: as §1
# Gal(b1-4)GlcNAc = target: Gal(b1-4)GlcNAc
# How it was run: as §1
# [13] = target: Gal(b1-4)GlcNAc(a1-6)Gal(b1-4)GlcNAc
# How it was run: as §1
# [14] = target: Gal(b1-4)GlcNAc(b1-2)Man(a1-3)Man(b1-4)GlcNAc(b1-4)GlcNAc
# How it was run: as §1
# [15] = target: Gal(b1-4)GlcNAc(b1-2)Man(a1-3)[Gal(b1-4)GlcNAc(b1-2)Man(a1-6)]Man(b1-4)GlcNAc(b1-4)GlcNAc
# How it was run: as §1
# [16] = target: Gal(b1-4)GlcNAc(b1-2)Man(a1-3)[Gal(b1-4)GlcNAc(b1-2)Man(a1-6)]Man(b1-4)GlcNAc(b1-4)[Fuc(a1-6)]GlcNAc
# How it was run: as §1
# [17] = target: Gal(b1-4)GlcNAc(b1-2)Man(a1-3)[Man(a1-6)]Man(b1-4)GlcNAc(b1-4)GlcNAc
# How it was run: as §1
# [18] = target: Gal(b1-4)GlcNAc(b1-2)Man(a1-6)Man(b1-4)GlcNAc(b1-4)GlcNAc
# How it was run: as §1
# [19] = target: Gal(b1-4)GlcNAc(b1-2)Man(a1-6)[Man(a1-3)]Man(b1-4)GlcNAc(b1-4)GlcNAc
# How it was run: as §1
# [20] = target: Gal(b1-4)GlcNAc(b1-2)[Gal(b1-4)GlcNAc(b1-4)]Man(a1-3)[Gal(b1-4)GlcNAc(b1-2)Man(a1-6)]Man(b1-4)GlcNAc(b1-4)GlcNAc
# How it was run: as §1
# [21] = target: Gal(b1-4)GlcNAc(b1-3)Gal(b1-3)GlcNAc
# How it was run: as §1
# [22] = target: Gal(b1-4)GlcNAc(b1-3)Gal(b1-4)Glc
# How it was run: as §1
# [23] = target: Gal(b1-4)GlcNAc(b1-3)Gal(b1-4)GlcNAc
# How it was run: as §1
# [24] = target: Gal(b1-4)GlcNAc(b1-3)Gal(b1-4)GlcNAc(b1-3)Gal(b1-4)GlcNAc
# How it was run: as §1
# [25] = target: Gal(b1-4)GlcNAc(b1-3)Gal(b1-4)[Fuc(a1-3)]GlcNAc(b1-3)Gal(b1-4)[Fuc(a1-3)]GlcNAc
# How it was run: as §1
# [26] = target: Gal(b1-4)GlcNAc(b1-3)GalNAc
# How it was run: as §1
# [27] = target: Gal(b1-4)GlcNAc(b1-3)[Gal(b1-4)GlcNAc(b1-6)]Gal(b1-4)GlcNAc
# How it was run: as §1
# [28] = target: Gal(b1-4)GlcNAc(b1-3)[GlcNAc(b1-6)]Gal(b1-4)GlcNAc
# How it was run: as §1
# [29] = target: Gal(b1-4)GlcNAc(b1-6)Gal(b1-4)GlcNAc
# How it was run: as §1
# [30] = target: Gal(b1-4)GlcNAc(b1-6)Gal(b1-4)GlcNAc(b1-6)GalNAc
# How it was run: as §1
# [31] = target: Gal(b1-4)GlcNAc(b1-6)GalNAc
# How it was run: as §1
# [32] = target: Gal(b1-4)GlcNAc(b1-6)[Gal(b1-3)]GalNAc
# How it was run: as §1
# Gal3S(b1-3)GalNAc = target: Gal3S(b1-3)GalNAc
# How it was run: as §1
# Gal3S(b1-3)GlcNAc = target: Gal3S(b1-3)GlcNAc
# How it was run: as §1
# [33] = target: Gal3S(b1-3)[Fuc(a1-4)]GlcNAc
# How it was run: as §1
# Gal3S(b1-4)Glc = target: Gal3S(b1-4)Glc
# How it was run: as §1
# Gal3S(b1-4)Glc6S = target: Gal3S(b1-4)Glc6S
# How it was run: as §1
# Gal3S(b1-4)GlcNAc = target: Gal3S(b1-4)GlcNAc
# How it was run: as §1
# Gal3S(b1-4)GlcNAc6S = target: Gal3S(b1-4)GlcNAc6S
# How it was run: as §1
# [34] = target: Gal3S(b1-4)[Fuc(a1-3)]Glc
# How it was run: as §1
# Gal3S4S(b1-4)GlcNAc = target: Gal3S4S(b1-4)GlcNAc
# How it was run: as §1
# Gal3S6S(b1-4)GlcNAc = target: Gal3S6S(b1-4)GlcNAc
# How it was run: as §1
# Gal3S6S(b1-4)GlcNAc6S = target: Gal3S6S(b1-4)GlcNAc6S
# How it was run: as §1
# Gal4S(b1-4)GlcNAc = target: Gal4S(b1-4)GlcNAc
# How it was run: as §1
# Gal4S6S(b1-4)GlcNAc = target: Gal4S6S(b1-4)GlcNAc
# How it was run: as §1
# Gal6S(b1-4)Glc = target: Gal6S(b1-4)Glc
# How it was run: as §1
# Gal6S(b1-4)Glc6S = target: Gal6S(b1-4)Glc6S
# How it was run: as §1
# Gal6S(b1-4)GlcNAc = target: Gal6S(b1-4)GlcNAc
# How it was run: as §1
# Gal6S(b1-4)GlcNAc6S = target: Gal6S(b1-4)GlcNAc6S
# How it was run: as §1
# GalNAc(a1-3)Gal = target: GalNAc(a1-3)Gal
# How it was run: as §1
# GalNAc(a1-3)GalNAc = target: GalNAc(a1-3)GalNAc
# How it was run: as §1
# GalNAc(b1-3)Gal = target: GalNAc(b1-3)Gal
# How it was run: as §1
# [35] = target: GalNAc(b1-3)Gal(a1-4)Gal(b1-4)GlcNAc
# How it was run: as §1
# [36] = target: GalNAc(b1-3)Gal(a1-4)Gal(b1-4)GlcNAc(b1-3)Gal(b1-4)Glc
# How it was run: as §1
# GalNAc(b1-3)GalNAc = target: GalNAc(b1-3)GalNAc
# How it was run: as §1
# GalNAc(b1-4)GlcNAc = target: GalNAc(b1-4)GlcNAc
# How it was run: as §1
# [37] = target: GalNAc(b1-4)GlcNAc(b1-2)Man(a1-3)[GalNAc(b1-4)GlcNAc(b1-2)Man(a1-6)]Man(b1-4)GlcNAc(b1-4)GlcNAc
# How it was run: as §1
binder,measurement,setting,value
B1,glycan array binding signal (z-score),[1],0.185
same,glycan array binding signal (z-score),[2],-0.132
same,glycan array binding signal (z-score),[3],-0.278
same,glycan array binding signal (z-score),[4],-0.569
same,glycan array binding signal (z-score),[5],-0.382
same,glycan array binding signal (z-score),[6],-0.491
same,glycan array binding signal (z-score),[7],-0.474
same,glycan array binding signal (z-score),[8],0.571
same,glycan array binding signal (z-score),[9],-0.584
same,glycan array binding signal (z-score),[10],-0.432
same,glycan array binding signal (z-score),[11],-0.437
same,glycan array binding signal (z-score),[12],-0.465
same,glycan array binding signal (z-score),Gal(b1-4)Glc,0.255
same,glycan array binding signal (z-score),Gal(b1-4)Glc6S,0.163
same,glycan array binding signal (z-score),Gal(b1-4)GlcNAc,-0.336
same,glycan array binding signal (z-score),[13],-0.276
same,glycan array binding signal (z-score),[14],-0.568
same,glycan array binding signal (z-score),[15],-0.431
same,glycan array binding signal (z-score),[16],-0.308
same,glycan array binding signal (z-score),[17],-0.191
same,glycan array binding signal (z-score),[18],-0.437
same,glycan array binding signal (z-score),[19],-0.543
same,glycan array binding signal (z-score),[20],-0.618
same,glycan array binding signal (z-score),[21],-0.611
same,glycan array binding signal (z-score),[22],-0.119
same,glycan array binding signal (z-score),[23],0.059
same,glycan array binding signal (z-score),[24],-0.513
same,glycan array binding signal (z-score),[25],-0.515
same,glycan array binding signal (z-score),[26],-0.254
same,glycan array binding signal (z-score),[27],-0.448
same,glycan array binding signal (z-score),[28],-0.415
same,glycan array binding signal (z-score),[29],-0.689
same,glycan array binding signal (z-score),[30],0.366
same,glycan array binding signal (z-score),[31],-0.547
same,glycan array binding signal (z-score),[32],-0.507
same,glycan array binding signal (z-score),Gal3S(b1-3)GalNAc,0.303
same,glycan array binding signal (z-score),Gal3S(b1-3)GlcNAc,0.396
same,glycan array binding signal (z-score),[33],-0.075
same,glycan array binding signal (z-score),Gal3S(b1-4)Glc,2.65
same,glycan array binding signal (z-score),Gal3S(b1-4)Glc6S,1.95
same,glycan array binding signal (z-score),Gal3S(b1-4)GlcNAc,-0.007
same,glycan array binding signal (z-score),Gal3S(b1-4)GlcNAc6S,1.93
same,glycan array binding signal (z-score),[34],0.55
same,glycan array binding signal (z-score),Gal3S4S(b1-4)GlcNAc,1.97
same,glycan array binding signal (z-score),Gal3S6S(b1-4)GlcNAc,2.29
same,glycan array binding signal (z-score),Gal3S6S(b1-4)GlcNAc6S,1.73
same,glycan array binding signal (z-score),Gal4S(b1-4)GlcNAc,0.156
same,glycan array binding signal (z-score),Gal4S6S(b1-4)GlcNAc,0.381
same,glycan array binding signal (z-score),Gal6S(b1-4)Glc,0.921
same,glycan array binding signal (z-score),Gal6S(b1-4)Glc6S,1.51
same,glycan array binding signal (z-score),Gal6S(b1-4)GlcNAc,0.224
same,glycan array binding signal (z-score),Gal6S(b1-4)GlcNAc6S,-0.606
same,glycan array binding signal (z-score),GalNAc(a1-3)Gal,-0.283
same,glycan array binding signal (z-score),GalNAc(a1-3)GalNAc,-0.582
same,glycan array binding signal (z-score),GalNAc(b1-3)Gal,-0.569
same,glycan array binding signal (z-score),[35],-0.528
same,glycan array binding signal (z-score),[36],-0.361
same,glycan array binding signal (z-score),GalNAc(b1-3)GalNAc,-0.376
same,glycan array binding signal (z-score),GalNAc(b1-4)GlcNAc,-0.317
same,glycan array binding signal (z-score),[37],-0.544
